Test results: PubChem BioAssay AID1346428 (National Center for Advancing Translational Sciences (NCATS), 2018)
The whole screen tested about 48,000 compounds, of which about 1,200 (2.5%) were called active. Inconclusive results (about 2%) are left out.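 Rule for the calls: active = activation of at least 60% and not above a set upper limit (about 1 call in 100 departs from these limits); inconclusive = activation of 40% to 60%, or above that upper limit; inactive = activation under 40%.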 The list shows a part of the results.

target: Probable G-protein coupled receptor 32 (Homo sapiens) (UniProt O75388); assay: qHTS for Agonists of Human Resolvin D1 Receptor DRV1; conditions: CHO-K1 GPR32 beta-arrestin PathHunter luminescence, 90 min; at 76.9 µM; active compounds read high; zero percent set by DMSO-only wells; note: 0% is about no effect
Sequence of UniProt O75388 (O75388 whole entry, looked up): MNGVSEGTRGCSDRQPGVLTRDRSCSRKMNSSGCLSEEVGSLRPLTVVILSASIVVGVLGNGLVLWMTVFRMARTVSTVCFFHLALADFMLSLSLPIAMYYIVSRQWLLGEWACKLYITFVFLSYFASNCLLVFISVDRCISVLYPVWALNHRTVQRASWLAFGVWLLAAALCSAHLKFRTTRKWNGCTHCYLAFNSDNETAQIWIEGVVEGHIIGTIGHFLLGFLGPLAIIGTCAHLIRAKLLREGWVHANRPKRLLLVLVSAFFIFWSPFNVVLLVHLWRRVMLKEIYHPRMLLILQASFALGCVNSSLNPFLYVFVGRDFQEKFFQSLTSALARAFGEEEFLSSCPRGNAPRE
In short: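 Engineered CHO-K1 line co-expressing GPR32-ProLink and EA-beta-arrestin. Compound treatment lasted 90 min at 37 °C. Luminescence was recorded after 1 h with substrate at ambient temperature, relative to DMSO basal wells.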

activation, inactive:
COc1ccc(Nc2nc3c(S(=O)(=O)c4ccccc4)nnn3c3ccc(Cl)cc23)c(OC)c1 -2.48%
CC(C)c1ccc(NC(=O)c2cn(C3CCCCC3)c(=O)c3c2c2ccccc2n3C)cc1 3.34%
CC(C)(C)NC[C@H](O)COc1cccc2c1CCCC2=O -1.41%
Cc1ccccc1CNC(=O)c1cccc(NC(=O)c2nsc3ccccc23)c1 -22.6%
COc1ccc(-c2nc(C)c(CCNC(=O)c3ccc(F)c(F)c3)s2)cc1 50%
Cc1ccccc1NC(=O)N1CCc2cc(S(=O)(=O)N3CCC(C)CC3)ccc21 -24.9%
Cc1nc2nc(SCC(=O)Nc3cccc(Cl)c3)nn2c(C)c1Cc1ccccc1 9.31%
CCCCn1c(=N)c(S(=O)(=O)c2ccccc2)cc2c(=O)n3cccc(C)c3nc21 -6.21%
CC(C)Cn1cc(NC(=O)NCc2ccccc2)c2ccccc2c1=O -39.1%
Cc1ccc2c(c1)c1c(c(=O)n(-c3cccc(Cl)c3)c(=O)n1CC(=O)c1ccc(Cl)cc1)n2C 9.72%
OC[C@H]1O[C@H](n2cnc3c(N[C@H]4CCC[C@@H]4O)ncnc32)[C@H](O)[C@@H]1O 4.72%
COc1ccccc1C1=NS(=O)(=O)N(C)C(C(=O)Nc2cc(OC)c(OC)c(OC)c2)=C1 -15.8%
COc1ccc(C)cc1NC(=O)C1CCN(S(=O)(=O)c2ccc3[nH]c4c(c3c2)CCCCC4)CC1 -14.8%
Nc1cc(=O)nc(SCC(=O)Nc2ccc(F)cc2)n1-c1ccccc1Cl -2.06%
O=C(COc1ccc([N+](=O)[O-])cc1)NCC1(N2CCOCC2)CCCCC1 -7.89%
Cc1cc(C)cc(NC(=O)CCCN2C(=O)COc3ccc(C)cc32)c1 -20.3%
Oc1c(C(c2ccccc2F)N2CCCCC2)sc2nc(-c3ccco3)nn12 (stereo not drawn) -2.46%
CC(=O)c1cccc(NC(=O)CSc2nc(=O)n(Cc3cccnc3)c3c2CCC3)c1 -6.7%
CCCCc1nc2ccccc2n2c(-c3ccc(OC)cc3)c3c(=O)n(C)c(=O)n(C)c3c12 -18%
CC(C)c1ccc(NC(=O)C2CCN(c3nc(-c4ccc(C(C)C)cc4)no3)CC2)cc1 -8.56%
Cc1c(C(=O)N2CCC(C)CC2)c(S(=O)(=O)NCc2ccc(Br)cc2)c(C)n1C -19.6%
O=C(CCc1cn(Cc2ccccc2Cl)c2ccccc12)NC1CCCCC1 -14.2%
CC(C)CC(=O)Nc1ccc(S(=O)(=O)Nc2cc3c(cc2N2CCOCC2)n(C)c(=O)c(=O)n3C)cc1 1.84%
